Experimental data published in PubChem BioAssay AID360 (National Center for Advancing Translational Sciences (NCATS), 2006).
Screen size: about 48,000 compounds; about 550 (1.1%) were called active. This list was built around the results that the source calls inconclusive (neither active nor inactive); the mix of calls is not that of the screen. Rule as the data show it: active = potency below about 15 µM; inconclusive = mostly about 16 µM to 33 µM; inactive = weaker than that. Where the call is inconclusive, the potency comes from a doubtful curve fit.

target: Lysosomal acid glucosylceramidase (Homo sapiens) (UniProt P04062); assay: Glucocerebrosidase; details: purified enzyme, resorufin glucoside fluorescence (screen aimed at inhibitors), 20 min;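 also: the screen sought inhibitors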
Chain of UniProt P04062 (P04062 whole entry, looked up): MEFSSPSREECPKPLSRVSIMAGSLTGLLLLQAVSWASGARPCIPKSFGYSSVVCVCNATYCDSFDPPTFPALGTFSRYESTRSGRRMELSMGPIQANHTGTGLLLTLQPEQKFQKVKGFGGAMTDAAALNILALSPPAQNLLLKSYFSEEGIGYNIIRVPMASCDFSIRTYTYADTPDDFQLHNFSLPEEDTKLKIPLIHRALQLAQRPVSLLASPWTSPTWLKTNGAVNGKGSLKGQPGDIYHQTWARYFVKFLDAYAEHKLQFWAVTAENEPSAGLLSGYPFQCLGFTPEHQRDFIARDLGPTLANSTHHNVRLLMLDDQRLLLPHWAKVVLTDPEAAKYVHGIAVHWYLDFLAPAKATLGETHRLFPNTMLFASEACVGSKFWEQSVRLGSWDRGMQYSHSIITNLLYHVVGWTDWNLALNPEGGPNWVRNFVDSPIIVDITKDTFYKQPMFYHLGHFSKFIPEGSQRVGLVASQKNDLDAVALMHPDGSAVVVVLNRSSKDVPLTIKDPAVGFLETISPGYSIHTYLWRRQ
Method in brief: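 Compounds titrated against 0.2 nM normal enzyme, 30 uM resorufin beta-D-glucopyranoside substrate, citrate/phosphate buffer with taurocholate and tween-20, pH 5.9. Reaction ran 20 min at room temperature; fluorescence (Ex 548/Em 600) gave AC50.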
Potency is read from the fitted curve at half-maximal effect.

Potency, inconclusive:
CCOC(=O)c1sc(=S)n(-c2cc(F)ccc2F)c1N 27.3 µM [decreasing], CCCOc1ccc(C2c3c(oc4ccccc4c3=O)C(=O)N2CCCN2CCOCC2)cc1 (stereo not drawn) 20.2 µM [decreasing], COc1cc(S(=O)(=O)N2CCOCC2)ccc1NC(=O)COC(=O)C12CC3CC(CC(C3)C1)C2 15.5 µM [decreasing], CCc1ccc2[nH]c(=O)c(CN(Cc3ccccc3OC)Cc3nnnn3Cc3ccco3)cc2c1 16.1 µM [decreasing], Cc1ccc(NC(=O)c2ccc3ccccc3n2)nc1 16.1 µM [increasing], O=C(CCCC(=O)N1CCc2ccccc21)N1CCc2ccccc21 23.7 µM [decreasing], CCOC(=O)c1nnn(-c2nonc2N)c1CNc1ccc(C)c(Br)c1 19.5 µM [decreasing], O=C(NCCNC(=O)C1CC2CCC1C2)C1CC2CCC1C2 (stereo not drawn) 18.7 µM [decreasing], O=C(NCc1ccc2c(c1)OCO2)c1ccc(-n2cnnn2)cc1 17.7 µM [decreasing], COc1ccccc1N1CCN(C(c2cc3cc(C)ccc3[nH]c2=O)c2nnnn2C2CCCC2)CC1 (stereo not drawn) 26.2 µM [decreasing], COc1ccc(C2CC(=O)N3C(=C2C#N)SCC3(O)c2ccccc2)cc1 (stereo not drawn) 25.1 µM [decreasing], CCOC(=O)c1ccc(OCc2nc(-c3cccs3)no2)cc1 18.7 µM [increasing], COc1ccc(C2=CC(c3sccc3C)n3nnnc3N2)cc1 (stereo not drawn) 27.3 µM [decreasing], CC1(C)CC(=O)C2=C(C1)N(CCN1CCOCC1)C1=C(C(=O)CC(C)(C)C1)C2c1cccc(Cl)c1 17.2 µM [decreasing], N#Cc1nc(-c2ccc(OCc3ccccc3)cc2)oc1NCCCn1ccnc1 28.7 µM [decreasing], COC(=O)c1ccc(Oc2nc(NC(C)C)nc(SC)n2)cc1 17.7 µM [decreasing], N#Cc1c(-c2cccs2)cc(-c2cccnc2)nc1N 18.8 µM [decreasing], Cn1c(=O)c2c(nc(SCCN3CCOCC3)n2Cc2cccc3ccccc23)n(C)c1=O 28 µM [decreasing], CCCCNC(=O)CCn1c(=O)c2ccccc2n(CC(=O)N2CC(C)CC(C)C2)c1=O (stereo not drawn) 16.1 µM [decreasing], O=C(CN1CCCN(S(=O)(=O)c2ccc(Br)cc2)CC1)Nc1ccc2c(c1)OCO2 26.9 µM [decreasing], OC(COc1ccc2ccccc2c1Br)Cn1ccnc1 (stereo not drawn) 26.3 µM [decreasing], COC(=O)Cn1c(C)nc2c(sc3nc(C)cc(C)c32)c1=O 18.6 µM [increasing], CCC(C)(C)n1nnnc1C(c1cc2ccc(OC)cc2[nH]c1=O)N1CCc2ccccc2C1 (stereo not drawn) 15.6 µM [decreasing], CC1CCCC(C)N1C(=O)CSc1nc2ncnc(N)c2[nH]1 (stereo not drawn) 17.1 µM [decreasing], CCC(C)(C)n1nnnc1C(c1ccc(O)c(OC)c1)N1CCN(c2nc3ccccc3s2)CC1 (stereo not drawn) 19.7 µM [decreasing], CCCc1cc(=O)[nH]c(SCC(=O)CSc2nc(CCC)cc(=O)[nH]2)n1 17.6 µM [decreasing], CCn1c(=N)n(CC(O)COc2cccc(C)c2)c2ccccc21 (stereo not drawn) 23.5 µM [decreasing], CCCOc1cc(C)c(S(=O)(=O)N2CCN(C)CC2)cc1C 29.7 µM [decreasing], O=C(Nc1ccc(Nc2ccccc2)cc1)C1CC1 16.9 µM [decreasing], CC1(C)CC(=O)C=C(Nc2ccc(Br)cn2)C1 32.6 µM [decreasing], O=C(NCCN1CCOCC1)c1noc2c1CCc1ccccc1-2 15.5 µM [decreasing], CCCc1[nH]nc2c1C(/C(C)=C/c1ccccc1)C(C#N)=C(N)O2 (stereo not drawn) 18.7 µM [decreasing], CC(C)c1ccc(OCC(O)CN2CCN(c3ccccc3)CC2)cc1 (stereo not drawn) 30.3 µM [decreasing], CCOC(=O)c1c(NC(=O)c2ccoc2C)sc2c1CCC2 17.3 µM [increasing], Cn1c(-c2ccc3c(c2)OCO3)cnc1NCc1cccc(Cl)c1 23.3 µM [decreasing], CCOC(=O)C1CCCN(c2c(NCCCN(CC)c3cccc(C)c3)c(=O)c2=O)C1 (stereo not drawn) 15.9 µM [decreasing], C#CCSc1nnc(-c2cccc3ccccc23)o1 20.2 µM [increasing], Cc1ccc(Nc2nc(N)nc(CN3CCN(Cc4ccc5c(c4)OCO5)CC3)n2)cc1Cl 29 µM [decreasing], CCOc1ccccc1-n1nnnc1SCC(=O)Nc1cc(C)on1 17 µM [decreasing], CCn1c(=O)c2cc(S(=O)(=O)NC3CCCCC3)ccc2n(CC)c1=O 17.4 µM [decreasing], Cc1cc(N2CCN(C)CC2)nc2ccc(NC(=O)CCC(=O)NCCC3=CCCCC3)cc12 24.7 µM [decreasing], COc1ccc(N2CCN(C(CNC(=O)c3cccc(Cl)c3)c3cccnc3)CC2)cc1 (stereo not drawn) 16.5 µM [decreasing], COC(=O)c1c(NC(=O)c2cccs2)sc2c1CCCC2 31.4 µM [increasing]

Potency, active:
CCCOC(=O)C1[C@H]2C(=O)N(C(C)c3ccc(OC)cc3)C[C@]23C=C[C@H]1O3 (stereo partly drawn) 12.8 µM, CC(C)CCn1cnc2c(c1=O)c1nc3ccccc3nc1n2Cc1ccc2c(c1)OCO2 6.09 µM, COc1cccc2cc(C(C)N(CCCN3CCOCC3)C(=O)Nc3ccc(Cl)cc3)oc12 (stereo not drawn) 9.17 µM, CCOC(=O)C1=C(C)NC(SCC(=O)Nc2cc(C)on2)=C(C#N)C1c1cccs1 (stereo not drawn) 1.9 µM, Cc1ccc(C)c(S(=O)(=O)Nc2ccccc2C(=O)Nc2cc(C)on2)c1 4.76 µM, Cc1ccc(NC(=O)CCn2cnc3ccccc3c2=O)cc1Cl 6.51 µM, O=C(COc1ccc(S(=O)(=O)NC2CCCCC2)cc1Cl)NCC1CCCO1 (stereo not drawn) 13.6 µM, Cc1cccc2c(=O)c(C(=O)N3CCCCCC3)c[nH]c12 6.46 µM, NC1=NC2(CCC(c3ccccc3)CC2)n2c(nc3ccccc32)N1 (stereo not drawn) 14.7 µM

Potency, inactive:
Cc1ccc(NC(=O)NCC(c2cccnc2)N2CCOCC2)cc1 (stereo not drawn) > 76.9 µM, Nc1nc2ccc(S(=O)(=O)c3ccc4nc(N)sc4c3)cc2s1 > 76.9 µM, CCOC(=O)c1c(NC(N)=O)sc(C)c1C > 76.9 µM, Cc1nn2c(N3CCOCC3)c3c(nc2c1-c1ccccc1)CCCC3 > 76.9 µM, Cc1ccc(C)c(/C(O)=C2\C(=O)C(=O)N(CCCN(C)C)C2c2cccnc2)c1 (stereo not drawn) > 76.9 µM, CCOC(=O)c1oc2nc3c(cc2c1N)COC(C)(C)C3 > 76.9 µM, COc1ccccc1-c1nnc2sc(-c3ccc(N(C)C)cc3)nn12 > 76.9 µM, Cn1c2ccccc2c2nnc(SCc3ccc4nonc4c3)nc21 > 76.9 µM, O=c1/c(=C\c2cccnc2)sc2nc3ccccc3n12 > 76.9 µM, Cc1cc2nn(-c3ccccc3)nc2cc1NC(=O)c1cccs1 > 76.9 µM, CC(C)(C)c1ccc2c(c1)OCC(C(=O)O)O2 (stereo not drawn) > 76.9 µM, COc1cc2nc(NCCN3CCOCC3)n3nc(-c4ccccc4)nc3c2cc1OC > 76.9 µM, O=c1c2cc(N3CCOCC3)ccc2[nH]c(=S)n1CCCN1CCN(c2ccccc2F)CC1 > 76.9 µM, Cc1oc(-c2ccccc2)cc1C(=O)Nc1cccc(C(=O)O)c1 > 76.9 µM, CCCCn1c(SCC(=O)Nc2cc(NC(=O)c3ccco3)ccc2C)nc2ccccc2c1=O > 76.9 µM, COc1ccc(-c2cc(C(F)(F)F)n3ncc(C(=O)NCC4CCCO4)c3n2)cc1 (stereo not drawn) > 76.9 µM, CCOC(=O)c1c(N)sc2c(NC(C)=O)cccc12 > 76.9 µM, O=C(Cn1c(-c2ccco2)nc2ccccc21)N1CCCCC1 > 76.9 µM, CC(Sc1nncn1C)C(=O)Nc1ccccc1-c1ccccc1 (stereo not drawn) > 76.9 µM, O=C(c1cn[nH]c1)c1cc(F)ccc1O > 76.9 µM, Cn1c(NCCCN2CCOCC2)nc2c1c(=O)n(Cc1ccc(Cl)c(Cl)c1)c(=O)n2C, O=C1CC(c2cccs2)Cc2nc(NCC3CCCO3)ncc21 (stereo not drawn) > 76.9 µM, COC(=O)c1cc2c([nH]c3ccccc32)c(C)n1 > 76.9 µM, CCOC(=O)N1CCN(S(=O)(=O)c2ccc(C(=O)Nc3sc4c(c3C#N)CCC4)cc2)CC1 > 76.9 µM, COCCn1nnnc1C(c1cc2cc(C)ccc2[nH]c1=O)N1CCCCCC1 (stereo not drawn) > 76.9 µM, N#CC1=C(N)N(c2ccccc2C#N)C2=C(C(=O)CCC2)C1c1ccsc1 (stereo not drawn) > 76.9 µM
